# The source gives no read counts; variants with many changes may rest on few reads.
# B1: CPEB3 Ribozyme (parent)
# chain: UAACAGGGGGCCACAGCAGAAGCGUUCACGUCGCAGCCCCUGUCAGAUUCUGGUGAAUCUGCGAAUUCUGCUGUAUAUCUC
# Variants of: B1
# Experiment: self-cleavage, relative activity (ratio to wild type); higher = more cleavage; in vitro, sequencing
# Method in brief: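 Relative activity compares each variant's cleaved/total read fraction with that of the unmutated ribozyme. To get these fractions, barcoded CPEB3 ribozyme libraries from rounds of error-prone PCR were transcribed with T7 RNA polymerase for 5 hours at 37°C and then given 15 min of DNase I treatment before EDTA was added. The RNAs were reverse transcribed with template switching and sequenced on Illumina, and DNA sequencing linked barcodes to variants. A minimum of 5 reads applied, and three batches were averaged.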
row,Variant,self-cleavage
1,U25A A45U A77G U80C,0.07
2,U25A A47G U72A,0.19
3,U25A A47G U74A A75U,0.17
4,U25A A57G U78A,0.14
5,U25A A64C A77U,0.22
6,U25A A64U U72G U78C,0.14
7,U25A C29A U51A A65G,0.29
8,U25A C29U A57G U72A,0.31
9,U25A C32A U41C A57U C79U,0.06
10,U25A C32U U51A G52C A64G,0.06
11,U25A C38A A77G,0.47
12,U25A C38A U51A A64U,0.04
13,U25A C38G U48A U51A,0.06
14,U25A C39U U58A A75U,0.07
15,U25A C59A U69C G73A U76C,0
16,U25A G30A A64G U78A,0.12
17,U25A G33U U49A,0.16
18,U25A G42U U69A,0.08
19,U25A G63C U80C,0.37
20,U25A G70A U80C,0.16
21,U25A U26A U43C A45G U66G U74C,0.17

row,Variant,self-cleavage
1,U25A U26A U69A,0.1
2,U25A U26C A35U A45G G53A,0.17
3,U25A U26C A35U A45U,0.07
4,U25A U26C C32U U51A A64G U72C,0.05
5,U25A U26C G30A G53A U74C,0.12
6,U25A U26C U31A A77G,0.23
7,U25A U26C U41A,0.3
8,U25A U26C U51A U58A,0.08
9,U25A U26C U72C,0.1
10,U25A U26G U31A U51C U54C,0.1
11,U25A U26G U80C,0.48
12,U25A U31A A45U A77U,0.11
13,U25A U31A A57G G73C U80C,0.27
14,U25A U31A U54C U58A,0.09
15,U25A U31C U48C U49C A65G,0.12
16,U25A U31C U74G,0.33
17,U25A U31G A35G G42A A45U U48C U60C,0.05
18,U25A U31G U54A U72C,0.23
19,U25A U41A U51C U74C,0.24
20,U25A U41A U54C,0.21
21,U25A U41C A56G U67C,0.1

row,Variant,self-cleavage
1,U25A U41C A65G U72C,0.16
2,U25A U41C U43C A64G G73U,0.39
3,U25A U41C U58C,0.09
4,U25A U41C U67C,0.09
5,U25A U41C U72A,0.07
6,U25A U41G A45G U60A,0.1
7,U25A U43C U60C,0.07
8,U25A U43C U66C,0.24
9,U25A U48C A56G U67C U72C,0.36
10,U25A U48C U54C U78A,0.14
11,U25A U48C U76C,0.14
12,U25A U48C U78C,0.47
13,U25A U49A U80C,0.2
14,U25A U51A A57G U67C A75C U76C,0.05
15,U25A U54A A64U,0.19
16,U25A U54C U78C,0.39
17,U25A U58C U69C,0.06
18,U25A U60C A77U,0.14
19,U25A U60C U78C U80A,0.06
20,U25A U67C U69C U80C,0.14
21,U25A U69C U76C,0.06

row,Variant,self-cleavage
1,U25C A28C A65G,0.15
2,U25C A28G A35G A45G C68U,0.22
3,U25C A28G A45U,0.08
4,U25C A28G A47U A64U,0.07
5,U25C A28G C34U,0.37
6,U25C A28G U31C U41C U74G A77G,0.21
7,U25C A28G U80A,0.15
8,U25C A28U A35U C71A,0.13
9,U25C A28U A45G,0.24
10,U25C A28U C32U A35U U41G U54A U58A,0.06
11,U25C A28U G63C,0.09
12,U25C A28U U31C A45C,0.19
13,U25C A28U U54A,0.1
14,U25C A28U U78A,0.19
15,U25C A35C C39A A45G,0.17
16,U25C A35G A45G A56U U67C,0.17
17,U25C A35G U41C,0.21
18,U25C A35G U43C A56G U67C U80C,0.15
19,U25C A35G U48C U66C,0.15
20,U25C A35G U58A C62U,0.13

# Source: the RNAGym collection of RNA variant scans (doi:10.1093/nar/gkz1192)
